Test results taken from PubChem BioAssay AID1508623 (National Center for Advancing Translational Sciences (NCATS), 2021).
In all, about 48,000 compounds went through this assay and about 450 (0.94%) were called active. The inconclusive results got no clear call from the source; some entries with a clear call stand among them for comparison. Calls come from the whole dose curve; as a rule, active = well fitted inhibition curve with a large enough effect; inconclusive = small, poorly fitted or top-dose-only effect; inactive = no such curve, though single readings can be large or run the other way. A potency beside an inconclusive call is a rough fit, not a confirmed value.

Assay: Primary qHTS for Identification of Small Molecule Inhibitors of Huntingtin Promoter Activity; note: nearly all actives have a fitted effect of over 50% in size
Conditions: HEK293 HTT promoter firefly luciferase reporter (activity 0% = vehicle and -100% = no light), 24 h; activity change, negative = inhibition: at 57.5 µM (top of the series)
Procedure, shortened: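 HEK293 luciferase promoter-reporter cells (2,500/well) plated 24 h, then compounds added at up to 57.5 uM final for 24 h at 37 °C. Firefly luminescence by Dual-Glo, normalized to vehicle (0%) and zero RLU (-100%).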
Potency is the fitted concentration of half-maximal effect; tags give direction and shape of the fitted curve.

Potency, inconclusive:
COc1ccc(Nc2cc(C)c3cc(NC(=O)Cc4ccc(Cl)cc4)ccc3n2)cc1 39.8 µM [inhibitor, single point]
Cc1ccc(Cl)cc1N1CCN(c2ncnc3c2nc2n3CCCCC2)CC1 39.8 µM [inhibitor, single point]
CCc1ccccc1NC(=O)Cc1ccc(NC(=O)N2CCCCc3ccccc32)cc1 39.8 µM [inhibitor, single point]
COc1ccccc1N1CCN(C(CNC(=O)C(=O)NCc2ccc(F)cc2)c2cccnc2)CC1 (configuration not stated) 12.6 µM [inhibitor, partial curve, poor fit]
Cc1ccc(CCNC(=O)c2cc3n(n2)CCCN(Cc2ccc(C)cc2)C3=O)cc1 39.8 µM [inhibitor, single point]
Cc1ccc(NC(=O)N2CCN(c3ccc(Cl)c(Cl)c3)CC2)cc1 31.6 µM [inhibitor, single point]
CCOc1ccc(-c2nnc(SCC(=O)Nc3ccc(C)cc3Cl)o2)cc1 3.98 µM [inhibitor, full curve]
Cc1ccc(NC(=O)c2cc(S(=O)(=O)NC3CCCCC3)ccc2F)cc1Cl 31.6 µM [inhibitor, single point]
COc1ccc(OC)c(CCNC(=O)c2cnn(-c3ccc(C)cc3C)c2C2CCN(C(=O)OC(C)(C)C)CC2)c1 39.8 µM [inhibitor, single point]
COc1ccc2[nH]cc(CCNC(=O)c3cnn(-c4ccc(C)cc4)c3C3CCN(C(=O)OC(C)(C)C)CC3)c2c1 31.6 µM [inhibitor, single point]
CC(C)N(Cc1ccccc1)C(=O)C1CCCN(c2ncnc3onc(-c4ccc(F)cc4)c23)C1 (configuration not stated) 28.2 µM [inhibitor, single point]
Cc1cc2n(n1)CCC(=O)N2Cc1ccc(C(=O)Nc2ccc(F)cc2F)cc1 39.8 µM [inhibitor, single point]
CCOC(=O)c1ccc(N2C(=O)c3[nH]nc(-c4ccc(OCC)cc4)c3C2c2cccs2)cc1 (configuration not stated) 12.6 µM [inhibitor, partial curve, poor fit]
CC(C)C[C@H](NC(=O)CNC(=O)c1cc(Cl)ccc1Cl)B1OC(=O)CC(CC(=O)O)(C(=O)O)O1 (some centres not stated) 0.193 µM [inhibitor, full curve]
Cc1ccc(-c2nnc(Nc3ccc(F)cc3)c3ccccc23)cc1S(=O)(=O)N1CCN(C)CC1 28.2 µM [inhibitor, single point]
COc1ccc(NCc2cc3cc4c(cc3n(CC(=O)Nc3ccc(C)c(C)c3)c2=O)OCO4)cc1 17.8 µM [inhibitor, single point]
COc1ccc(-c2nn(-c3ccccc3)cc2C2NC(=O)NC(C)=C2C(=O)OC(C)C)cc1Cl (configuration not stated) 31.6 µM [inhibitor, single point]
CCOC(=O)c1cc(-c2ccc(F)cc2)n(CCC(=O)Nc2nc3ccc(OC)cc3s2)c1C 28.2 µM [inhibitor, partial curve, poor fit]
CCOc1cc(-c2ccc(OC(=O)c3ccc(OC)cc3)c(OC)c2)cc(=O)c2c(C)oc(C)c12 28.2 µM [inhibitor, single point]
Cc1ccc(N=C2NC(=O)CC(C(=O)Nc3cc(C(F)(F)F)ccc3Cl)S2)cc1 (configuration not stated) 31.6 µM [inhibitor, partial curve, poor fit]
CCS(=O)(=O)c1ncc(Cl)c(C(=O)Nc2ccccc2)n1 39.8 µM [inhibitor, single point]
O=S(=O)(NCC(c1ccco1)S(=O)(=O)c1cccs1)c1ccc(Cl)cc1 (configuration not stated) 17.8 µM [inhibitor, single point]
CC(=O)c1cccc(NS(=O)(=O)c2cc(-c3cnc(C4CC4)o3)ccc2C)c1 25.1 µM [inhibitor, partial curve, poor fit]
Cc1ccc(CSCCC(=O)NCc2ccc(F)cc2Cl)cc1 31.6 µM [inhibitor, single point]
Cc1ccc(C)c(NC(=O)Cn2cc(C(=O)c3cccs3)c3ccccc32)c1 15.8 µM [inhibitor, partial curve, poor fit]
Cc1ccc(NS(=O)(=O)c2cc(-c3cnc(C4CC4)o3)ccc2C)cc1Cl 10 µM [inhibitor, partial curve, poor fit]
CCC(C(=O)NCc1ccc(OC)c(OC)c1)n1nc(C)c2c(C)n(-c3ccc(C)cc3)nc2c1=O (configuration not stated) 35.5 µM [inhibitor, single point]
Cc1ccc(C(=O)COC(=O)c2cccc(NC(=O)c3ccc(Cl)cc3Cl)c2)cc1 39.8 µM [inhibitor, single point]
CCc1ccccc1NC(=O)CN1CCCN(Cc2cc(C)ccc2C)S1(=O)=O 28.2 µM [inhibitor, single point]
COc1ccccc1-c1cc(C(=O)Nc2cc(OC)c(OC)c(OC)c2)no1 20 µM [inhibitor, partial curve, poor fit]
COc1ccc(C(=O)NNc2ncnc3c2cnn3-c2cccc(Cl)c2)cc1OC 39.8 µM [inhibitor, single point]
Cc1ccc(NC(=O)C2CCN(S(=O)(=O)c3c(C)noc3/C=C/c3cccs3)CC2)cc1F 15.8 µM [inhibitor, partial curve]
Cc1cccc(N(CC(=O)NCCSCc2cccc(Cl)c2)S(=O)(=O)c2ccccc2)c1C 39.8 µM [inhibitor, single point]
CC(CCc1ccccc1)NC(=O)CSc1n[nH]c(-c2ccc(F)cc2)n1 (configuration not stated) 25.1 µM [inhibitor, single point]
Cc1cccc(Cn2cc(C(=O)Nc3cc(F)ccc3F)ccc2=O)c1 39.8 µM [inhibitor, single point]
COc1ccc(-c2nc(Cn3c(SCc4cccc(C(F)(F)F)c4)nc4cccnc43)c(C)o2)cc1OC 25.1 µM [inhibitor, single point]
CCCc1nn2c(=O)cc(COC(=O)c3ccc(NC(=O)C4CCCCC4)cc3)nc2s1 2.82 µM [inhibitor, single point]
O=C(Nc1ccc(Br)cc1F)N1CC=C(c2c[nH]c3ccccc23)CC1 6.31 µM [inhibitor, full curve, poor fit]
Cc1ccc2ncc(C(=O)c3ccc(C)c(C)c3)c(S(=O)(=O)c3ccccc3)c2c1 39.8 µM [inhibitor, single point]
Nc1cccc(-c2cc3c(Oc4cccc(O)c4)ncnc3[nH]2)c1 21.7 µM [inhibitor, partial curve, poor fit]
COc1ccccc1N1CCN(Cc2nc(-c3cc(OC)c(OC)c(OC)c3)no2)CC1 22.4 µM [inhibitor, partial curve, poor fit]
Cc1ccc(NC(=O)CSc2nc3n[nH]c(C)c3c(=N)n2-c2ccccc2C)cc1C 25.1 µM [inhibitor, partial curve]
O=S1(=O)c2ccccc2N(Cc2ccc(F)cc2)c2ccccc21 31.6 µM [inhibitor, partial curve, poor fit]
Cc1ccc(-c2nc(CS(=O)(=O)CC(=O)N3CCN(c4ccccc4)CC3)c(C)o2)cc1 25.1 µM [inhibitor, single point]

Potency, inactive:
CCOC(=O)C1=C(C)NC(C)=C(C(=O)OC)C1c1cccc([N+](=O)[O-])c1 (configuration not stated)
CCS(=O)(=O)c1ncc(Cl)c(C(=O)Nc2c(C(=O)Nc3cccc(C)c3)oc3ccccc23)n1
CCN(Cc1ccccc1)C(=O)c1cc2c(=O)[nH]c3ccc(C)cc3c2s1
O=C(Nc1sc2c(c1C(=O)Nc1cccc(Cl)c1)CCCC2)c1cccs1
CCn1nnc2cc(C(=O)Nc3ccc(C)c(Cl)c3)ccc21
CC(=O)c1ccc(N2CCN(S(=O)(=O)c3cc(-c4noc(C)n4)ccc3C)CC2)cc1
Cc1cc(-c2ccc(S(=O)(=O)N3CCN(c4ccc(Cl)cc4)CC3)s2)on1
COc1cc(Cl)c(NS(=O)(=O)c2cc(-c3cc(C)no3)ccc2OC)c(OC)c1
CCc1nn(CC(=O)N(C)Cc2ccccc2)c(=O)c2cc3sccc3n12
Cc1ccc(NC(=O)Nc2ccccc2OCc2cc(=O)n3ccccc3n2)c(Cl)c1
COc1ccc(Cl)cc1N(C)C(=O)c1cc2c(=O)oc3ccc(C)cc3c2s1
COc1ccc(-c2ccc(CCC(=O)O)n2-c2ccccc2O)cc1
COc1ccc(C(=O)c2sc3nc(-c4ccc(F)cc4)ccc3c2N)cc1
CC(=O)c1ccc(NC(=O)c2nc(-c3ccccc3)n(-c3ccccc3)n2)cc1
C[C@@H]1CCN(C(=O)CC#N)C[C@H]1N(C)c1ncnc2[nH]ccc12
COc1ccc(-n2nc(C(N)=O)c3c2C(=O)N(c2ccc(N4CCCCC4=O)cc2)CC3)cc1
Cc1cccc(NC(=O)CSc2nc3ccc(NC(=O)CCc4ccccc4)cc3s2)c1

Activity change, negative = inhibition, inactive:
COc1ccc(-c2nc3scc(CCNC(=O)c4cccc(Br)c4)n3n2)cc1 -17.8% [at 11.5 µM]
